# Measured values: the supplement of paper PMC8728848
# The list shows a part of the results.
# Key:
# Test in all cases: glycan array binding signal (z-score within array); higher = stronger binding
# Conditions in all cases: glycan notation: IUPAC condensed, linker removed
# [1] = biological target: Neu5Ac(a2-3)Gal(b1-3)GlcNAc(b1-6)GalNAc
# Procedure, shortened: (§1)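 Glycan array data were curated from 3228 arrays in the Consortium for Functional Glycomics database and kept only where the protein sequence was available. Glycan names were converted to IUPAC-condensed notation, and columns mapping to the same glycan were averaged. The binding signal is a within-array Z-score, averaged across arrays of the same protein sequence at different concentrations or buffers and across linkers. Negative Z-scores can be read as non-binding.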
# [2] = biological target: Neu5Ac(a2-3)Gal(b1-3)GlcNAc6S
# Procedure, shortened: as §1
# [3] = biological target: Neu5Ac(a2-3)Gal(b1-3)[Fuc(a1-4)]GlcNAc
# Procedure, shortened: as §1
# [4] = biological target: Neu5Ac(a2-3)Gal(b1-3)[Fuc(a1-4)]GlcNAc(b1-3)Gal(b1-3)[Fuc(a1-4)]GlcNAc
# Procedure, shortened: as §1
# [5] = biological target: Neu5Ac(a2-3)Gal(b1-3)[Fuc(a1-4)]GlcNAc(b1-3)Gal(b1-4)[Fuc(a1-3)]GlcNAc
# Procedure, shortened: as §1
# [6] = biological target: Neu5Ac(a2-3)Gal(b1-3)[GlcNAc(b1-6)]GalNAc
# Procedure, shortened: as §1
# [7] = biological target: Neu5Ac(a2-3)Gal(b1-3)[Neu5Ac(a2-6)]GalNAc
# Procedure, shortened: as §1
# [8] = biological target: Neu5Ac(a2-3)Gal(b1-3)[Neu5Ac(a2-6)]GlcNAc(b1-3)[Fuc(a1-3)[Gal(b1-4)]GlcNAc(b1-6)]Gal(b1-4)Glc
# Procedure, shortened: as §1
# [9] = biological target: Neu5Ac(a2-3)Gal(b1-3)]Neu5Ac(a2-3)Gal(b1-4)]GlcNAc
# Procedure, shortened: as §1
# Neu5Ac(a2-3)Gal(b1-4)Glc = biological target: Neu5Ac(a2-3)Gal(b1-4)Glc
# Procedure, shortened: as §1
# [10] = biological target: Neu5Ac(a2-3)Gal(b1-4)GlcNAc
# Procedure, shortened: as §1
# [11] = biological target: Neu5Ac(a2-3)Gal(b1-4)GlcNAc(b1-2)Man
# Procedure, shortened: as §1
# [12] = biological target: Neu5Ac(a2-3)Gal(b1-4)GlcNAc(b1-2)Man(a1-3)[GlcNAc(b1-4)][Neu5Ac(a2-3)Gal(b1-4)GlcNAc(b1-2)Man(a1-6)]Man(b1-4)GlcNAc(b1-4)GlcNAc
# Procedure, shortened: as §1
# [13] = biological target: Neu5Ac(a2-3)Gal(b1-4)GlcNAc(b1-2)Man(a1-3)[Neu5Ac(a2-3)Gal(b1-4)GlcNAc(b1-2)Man(a1-6)]Man(b1-4)GlcNAc(b1-4)GlcNAc
# Procedure, shortened: as §1
# [14] = biological target: Neu5Ac(a2-3)Gal(b1-4)GlcNAc(b1-2)Man(a1-3)[Neu5Ac(a2-3)Gal(b1-4)GlcNAc(b1-2)Man(a1-6)]Man(b1-4)GlcNAc(b1-4)[Fuc(a1-6)]GlcNAc
# Procedure, shortened: as §1
# [15] = biological target: Neu5Ac(a2-3)Gal(b1-4)GlcNAc(b1-2)Man(a1-3)[Neu5Ac(a2-6)Gal(b1-4)GlcNAc(b1-2)Man(a1-6)]Man(b1-4)GlcNAc(b1-4)GlcNAc
# Procedure, shortened: as §1
# [16] = biological target: Neu5Ac(a2-3)Gal(b1-4)GlcNAc(b1-2)[Neu5Ac(a2-3)Gal(b1-4)GlcNAc(b1-4)]Man(a1-3)[GlcNAc(b1-4)][Neu5Ac(a2-3)Gal(b1-4)GlcNAc(b1-2)[Neu5Ac(a2-3)Gal(b1-4)GlcNAc(b1-6)]Man(a1-6)]Man(b1-4)GlcNAc(b1-4)GlcNAc
# Procedure, shortened: as §1
# [17] = biological target: Neu5Ac(a2-3)Gal(b1-4)GlcNAc(b1-2)[Neu5Ac(a2-3)Gal(b1-4)GlcNAc(b1-4)]Man(a1-3)[GlcNAc(b1-4)][Neu5Ac(a2-3)Gal(b1-4)GlcNAc(b1-4)Man(a1-6)]Man(b1-4)GlcNAc(b1-4)GlcNAc
# Procedure, shortened: as §1
# [18] = biological target: Neu5Ac(a2-3)Gal(b1-4)GlcNAc(b1-2)[Neu5Ac(a2-3)Gal(b1-4)GlcNAc(b1-6)]Man(a1-6)[Neu5Ac(a2-3)Gal(b1-4)GlcNAc(b1-2)Man(a1-3)][GlcNAc(b1-4)]Man(b1-4)GlcNAc(b1-4)GlcNAc
# Procedure, shortened: as §1
# [19] = biological target: Neu5Ac(a2-3)Gal(b1-4)GlcNAc(b1-3)Gal
# Procedure, shortened: as §1
# [20] = biological target: Neu5Ac(a2-3)Gal(b1-4)GlcNAc(b1-3)Gal(b1-3)GlcNAc
# Procedure, shortened: as §1
# [21] = biological target: Neu5Ac(a2-3)Gal(b1-4)GlcNAc(b1-3)Gal(b1-4)GlcNAc
# Procedure, shortened: as §1
# [22] = biological target: Neu5Ac(a2-3)Gal(b1-4)GlcNAc(b1-3)Gal(b1-4)GlcNAc(b1-2)Man(a1-3)[Neu5Ac(a2-3)Gal(b1-4)GlcNAc(b1-3)Gal(b1-4)GlcNAc(b1-2)Man(a1-6)]Man(b1-4)GlcNAc(b1-4)GlcNAc
# Procedure, shortened: as §1
# [23] = biological target: Neu5Ac(a2-3)Gal(b1-4)GlcNAc(b1-3)Gal(b1-4)GlcNAc(b1-3)Gal(b1-4)GlcNAc
# Procedure, shortened: as §1
# [24] = biological target: Neu5Ac(a2-3)Gal(b1-4)GlcNAc(b1-3)Gal(b1-4)GlcNAc(b1-3)Gal(b1-4)GlcNAc(b1-2)Man(a1-3)[Neu5Ac(a2-3)Gal(b1-4)GlcNAc(b1-3)Gal(b1-4)GlcNAc(b1-3)Gal(b1-4)GlcNAc(b1-2)Man(a1-6)]GalNAc
# Procedure, shortened: as §1
# [25] = biological target: Neu5Ac(a2-3)Gal(b1-4)GlcNAc(b1-3)Gal(b1-4)GlcNAc(b1-3)GalNAc
# Procedure, shortened: as §1
# [26] = biological target: Neu5Ac(a2-3)Gal(b1-4)GlcNAc(b1-3)Gal(b1-4)GlcNAc(b1-3)[Neu5Ac(a2-3)Gal(b1-4)GlcNAc(b1-3)Gal(b1-4)GlcNAc(b1-6)]GalNAc
# Procedure, shortened: as §1
# [27] = biological target: Neu5Ac(a2-3)Gal(b1-4)GlcNAc(b1-3)Gal(b1-4)GlcNAc(b1-6)[Gal(b1-3)]GalNAc
# Procedure, shortened: as §1
# [28] = biological target: Neu5Ac(a2-3)Gal(b1-4)GlcNAc(b1-3)Gal(b1-4)[Fuc(a1-3)]GlcNAc
# Procedure, shortened: as §1
# [29] = biological target: Neu5Ac(a2-3)Gal(b1-4)GlcNAc(b1-3)GalNAc
# Procedure, shortened: as §1
binder,measurement,setting,value
"LgFlo1 (Saccharomyces pastorianus), B3IUA8 (protein) SGSTQACLPVGSRKNGMNVNFYKYSLQDSTTYSDPQYMAYKYSDTKKLGSVSGQTHLSIYYGPNTAFWNTASWSSDLFGFYTTPTNVTVEMTGYFLPPQTGSYTFKFATVDDSAILSVGGSIAFECCAQEQPPITSTDFTINGIKPWDAATPTDIKGSTYMYAGYYYPIKIVYSNAKALARLPVSVVLPDGTEVNDDFEGYVYSFDDDLSQSNCTIPDPSKHTTS",glycan array binding signal (z-score),[1],-0.374
same,glycan array binding signal (z-score),[2],-0.305
same,glycan array binding signal (z-score),[3],-0.245
same,glycan array binding signal (z-score),[4],-0.023
same,glycan array binding signal (z-score),[5],-0.176
same,glycan array binding signal (z-score),[6],-0.396
same,glycan array binding signal (z-score),[7],-0.194
same,glycan array binding signal (z-score),[8],-0.335
same,glycan array binding signal (z-score),[9],-0.357
same,glycan array binding signal (z-score),Neu5Ac(a2-3)Gal(b1-4)Glc,1.97
same,glycan array binding signal (z-score),[10],-0.17
same,glycan array binding signal (z-score),[11],0.168
same,glycan array binding signal (z-score),[12],-0.11
same,glycan array binding signal (z-score),[13],0.515
same,glycan array binding signal (z-score),[14],-0.133
same,glycan array binding signal (z-score),[15],-0.162
same,glycan array binding signal (z-score),[16],-0.041
same,glycan array binding signal (z-score),[17],-0.142
same,glycan array binding signal (z-score),[18],-0.271
same,glycan array binding signal (z-score),[19],-0.169
same,glycan array binding signal (z-score),[20],-0.316
same,glycan array binding signal (z-score),[21],-0.092
same,glycan array binding signal (z-score),[22],-0.028
same,glycan array binding signal (z-score),[23],-0.17
same,glycan array binding signal (z-score),[24],-0.21
same,glycan array binding signal (z-score),[25],-0.237
same,glycan array binding signal (z-score),[26],-0.197
same,glycan array binding signal (z-score),[27],-0.226
same,glycan array binding signal (z-score),[28],-0.509
same,glycan array binding signal (z-score),[29],-0.114
